# The other results are listed elsewhere or left out. Each Rep nickase domain was tested in vitro on the same pool of single strands for 1 h at 37 °C with 3 µM enzyme; only the middle of the 90-letter strands is printed. Values are log2 of uncut reads against the no-enzyme pool; uncut sequences lie near 0, cut ones below; no hit call is given. Counts are relative to all reads; where an enzyme cuts many sequences, the uncut ones exceed 0.
# Key:
# Assay in all cases: uncleaved DNA left, log2 of reads against the no-enzyme library (log2 ratio); higher = less cleavage (more negative = more Rep cleavage of the k-mer); sequences stand for … in CTCGTCCG…ACCGGAGA
# [1] = tested on: T1, Rep nickase domain of Muscovy duck circovirus
# T1 sequence (Rep 1-111, printed without the tag): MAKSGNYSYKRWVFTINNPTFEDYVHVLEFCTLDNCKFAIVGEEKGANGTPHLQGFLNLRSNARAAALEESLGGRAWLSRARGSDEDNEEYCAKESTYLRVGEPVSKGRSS
# Protocol: (§1)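 A pool of 90-nt single-stranded DNAs with seven random bases just before the constant AC of the nick site (name = the seven bases) was cut by 3 µM recombinant His6-SUMO-tagged Rep nickase domain (300 nM DNA, 50 mM HEPES pH 8.0, 50 mM NaCl, 1 mM MnCl2, 1 h, 37 °C, three replicates). Uncut DNA was amplified and sequenced.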
# [2] = tested on: T2, Rep nickase domain of banana bunchy top virus
# T2 sequence (Rep 1-94, printed without the tag): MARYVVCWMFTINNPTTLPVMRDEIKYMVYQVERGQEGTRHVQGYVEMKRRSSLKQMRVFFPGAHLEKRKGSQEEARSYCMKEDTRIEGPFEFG
# Protocol: as §1
# [3] = tested on: T3, Rep nickase domain of cabbage leaf curl virus
# T3 sequence (Rep 1-116, printed without the tag): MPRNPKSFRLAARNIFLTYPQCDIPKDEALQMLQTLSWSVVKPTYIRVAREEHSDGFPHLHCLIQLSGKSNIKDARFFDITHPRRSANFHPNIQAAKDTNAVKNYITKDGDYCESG
# Protocol: as §1
# [4] = tested on: T4, Rep nickase domain of chickpea chlorotic dwarf virus
# T4 sequence (Rep 1-124, printed without the tag): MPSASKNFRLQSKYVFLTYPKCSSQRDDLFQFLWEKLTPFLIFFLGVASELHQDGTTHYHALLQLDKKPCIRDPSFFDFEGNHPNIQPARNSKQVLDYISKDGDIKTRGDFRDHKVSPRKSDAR
# Protocol: as §1
# [5] = tested on: T5, Rep nickase domain of faba bean necrotic yellows virus
# T5 sequence (Rep 1-98, printed without the tag): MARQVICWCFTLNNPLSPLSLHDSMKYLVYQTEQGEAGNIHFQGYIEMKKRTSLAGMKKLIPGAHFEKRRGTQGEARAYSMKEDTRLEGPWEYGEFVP
# Protocol: as §1
# [6] = tested on: T6, Rep nickase domain of maize striate mosaic virus
# T6 sequence (Rep 1-117, printed without the tag): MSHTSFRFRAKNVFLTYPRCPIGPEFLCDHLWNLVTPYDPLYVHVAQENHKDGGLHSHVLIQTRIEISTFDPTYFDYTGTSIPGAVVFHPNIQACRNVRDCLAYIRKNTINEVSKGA
# Protocol: as §1
# [7] = tested on: T7, Rep nickase domain of porcine circovirus 2
# T7 sequence (Rep 2-116, printed without the tag): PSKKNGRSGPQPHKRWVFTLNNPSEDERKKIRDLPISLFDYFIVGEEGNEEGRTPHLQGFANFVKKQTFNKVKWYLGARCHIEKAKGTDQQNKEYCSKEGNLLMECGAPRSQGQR
# Protocol: as §1
# [8] = tested on: T8, Rep nickase domain of tomato golden mosaic virus
# T8 sequence (Rep 1-124, printed without the tag): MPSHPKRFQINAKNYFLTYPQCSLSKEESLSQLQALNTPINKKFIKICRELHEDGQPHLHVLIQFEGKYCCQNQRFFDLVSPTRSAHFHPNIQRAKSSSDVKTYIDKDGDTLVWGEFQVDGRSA
# Protocol: as §1
# [9] = tested on: T9, Rep nickase domain of tomato yellow leaf curl virus
# T9 sequence (Rep 1-136, printed without the tag): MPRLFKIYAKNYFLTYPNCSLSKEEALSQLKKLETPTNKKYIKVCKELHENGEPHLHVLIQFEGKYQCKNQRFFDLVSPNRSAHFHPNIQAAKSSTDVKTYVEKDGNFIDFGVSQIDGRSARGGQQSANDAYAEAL
# Protocol: as §1
# [10] = tested on: T10, Rep nickase domain of wheat dwarf virus
# T10 sequence (Rep 1-137, printed without the tag): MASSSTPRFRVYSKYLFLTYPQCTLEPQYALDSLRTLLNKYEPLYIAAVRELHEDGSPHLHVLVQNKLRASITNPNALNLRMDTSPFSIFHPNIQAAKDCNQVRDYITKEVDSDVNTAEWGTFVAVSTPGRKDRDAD
# Protocol: as §1
Sequence,uncleaved DNA left (log2) [1],uncleaved DNA left (log2) [2],uncleaved DNA left (log2) [3],uncleaved DNA left (log2) [4],uncleaved DNA left (log2) [5],uncleaved DNA left (log2) [6],uncleaved DNA left (log2) [7],uncleaved DNA left (log2) [8],uncleaved DNA left (log2) [9],uncleaved DNA left (log2) [10]
AGCTGTC,-0.0111,-0.0119,0.268,1.22,-0.0623,1.18,0.2,-0.0181,-0.0587,0.0262
TCCTTAC,-0.161,-0.205,-0.129,-2.34,-0.104,-0.683,-0.089,-0.172,-0.203,-0.191
TAGATTA,0.0148,-0.0603,-0.34,-2.09,0.00384,-0.2,-2.71,0.0736,0.0846,-0.0105
ATTGTTC,-0.0789,-0.0783,-0.207,-2.18,0.0153,-0.926,-0.203,-0.0776,-0.01,-0.21
GCGCCCT,-0.145,-0.0643,0.0429,-0.596,-0.0329,0.293,-0.285,-0.161,-0.0543,0.0128
TGCAATG,0.0118,0.08,-0.172,0.255,-0.00103,0.642,0.0285,0.186,-0.217,0.138
CGCGACC,-0.205,-0.176,-0.16,0.247,-0.109,-0.538,-0.159,-0.0358,-0.123,-0.179
TTCCCTA,-0.182,-0.118,0.0578,-0.655,-0.105,-0.0625,-0.482,-0.177,-0.12,-0.128
TGCTTAT,-0.259,-0.0328,0.197,-0.456,0.0419,-0.429,-1.14,0.0381,-0.0478,0.0227
CCTTTAG,0.117,0.112,-0.564,-0.128,0.0941,-1.19,0.216,-0.00784,0.114,0.0282
GCGTGTC,0.0581,-0.0808,0.163,0.385,-0.0241,0.18,-0.0348,-0.0389,-0.00398,-0.081
GACGATT,0.197,-0.0607,0.402,-1.32,0.0896,1.39,-0.36,-0.0442,0.00806,0.161
ACACCTA,-0.0578,-0.0173,-0.238,-1.04,0.0303,-0.527,-0.0273,-0.0524,-0.13,0.0188
CGGTTGA,0.00956,0.0662,0.194,0.518,0.0836,0.953,0.123,0.0261,0.179,0.225
ACCTTTC,-0.0611,-0.124,-0.348,-0.477,-0.099,-1.04,-0.00364,-0.0285,-0.0973,-0.229
TGAGTAC,0.1,-0.054,0.326,-0.00784,-0.00994,0.352,0.0325,0.0121,-0.0316,0.0725
AGCCTGG,0.0735,0.0777,0.102,0.49,0.183,0.754,0.211,0.0807,0.0313,0.132
GGATAGA,0.0496,0.137,0.794,1.72,0.0905,2,0.209,0.0525,0.0145,0.157
AATCCGG,-0.133,0.0868,0.468,1.25,0.0449,1.33,0.0532,0.0672,-0.13,0.00994
TCCTCCG,-0.0552,-0.1,-0.723,-0.475,-0.131,-1.17,0.0826,-0.16,-0.139,-0.12

Sequence,uncleaved DNA left (log2) [1],uncleaved DNA left (log2) [2],uncleaved DNA left (log2) [3],uncleaved DNA left (log2) [4],uncleaved DNA left (log2) [5],uncleaved DNA left (log2) [6],uncleaved DNA left (log2) [7],uncleaved DNA left (log2) [8],uncleaved DNA left (log2) [9],uncleaved DNA left (log2) [10]
CCGCCGG,0.115,0.0307,0.515,1.02,0.134,1.33,0.115,0.0904,-0.0362,-0.114
GGGTGGA,-0.0706,0.0673,0.714,1.61,-0.0207,2.01,0.11,0.0152,0.0414,0.104
TCCGATG,0.197,-0.00435,0.117,0.538,0.0044,0.343,0.266,0.0432,0.0593,0.154
GTCATGC,0.082,-0.0242,0.0702,0.292,-0.188,-0.00979,-0.0414,0.0368,-0.0857,-0.0566
ATTGCCA,0.00734,-0.0554,-0.504,-0.807,0.0649,-1.13,0.0335,-0.0275,0.141,-0.0614
AGTACCA,-0.0218,0.159,0.181,-0.354,-6.58e-05,0.645,-0.479,0.0311,0.0658,0.169
ATCGGCA,0.051,0.114,-0.156,-0.422,0.0256,-0.84,-0.0969,-0.0684,0.0497,0.0658
ACGAGGA,0.0112,0.0211,0.159,0.354,0.16,-0.386,-0.0945,-0.0123,-0.0659,0.0339
GAGCAGT,-0.0208,0.0168,0.197,0.852,0.0545,0.887,-0.969,-0.0343,0.0776,0.0537
TAGCTTT,0.14,-0.349,-2.05,-2.68,-0.0946,-0.552,-3.85,-0.267,0.148,-0.309
GGAACTC,0.00722,0.0799,0.743,1.77,-0.0156,2.07,0.184,-0.0328,0.0944,0.162
TGTCTTC,0.0278,-0.172,0.277,0.375,-0.0185,0.754,0.0208,-0.123,-0.063,-0.107
AGGGAGC,-0.0831,-0.0347,0.261,1.18,-0.00565,0.962,0.205,0.0819,-0.0439,-0.0129
TCCATCG,0.0373,-0.0243,-0.816,-0.189,-0.0104,-1.12,0.182,-0.0191,-0.00399,-0.101
GCGCACT,0.146,0.0495,0.112,0.417,0.078,1.26,0.12,-0.122,0.0502,0.147
GAACGGG,0.00837,0.00978,0.115,0.692,-0.118,0.553,0.0735,-0.0155,-0.2,-0.0527
GGCTGAT,-0.142,-0.0321,0.346,1.14,-0.029,1.51,-0.663,-0.0325,-0.0381,0.0658
TCTGGAG,0.109,-0.00657,-0.701,-0.556,0.0285,-1.11,0.157,0.0165,0.0214,-0.123
ACTTACT,-3.08,-1.33,-0.49,-2.75,0.0823,-0.741,-3.37,-0.0213,-0.0504,-0.0075
AAGTCGT,0.000661,-0.109,-0.4,-0.717,-0.0774,-0.748,-3.42,0.0435,-0.0957,-0.104

Sequence,uncleaved DNA left (log2) [1],uncleaved DNA left (log2) [2],uncleaved DNA left (log2) [3],uncleaved DNA left (log2) [4],uncleaved DNA left (log2) [5],uncleaved DNA left (log2) [6],uncleaved DNA left (log2) [7],uncleaved DNA left (log2) [8],uncleaved DNA left (log2) [9],uncleaved DNA left (log2) [10]
GATTTCA,-0.557,-0.133,0.203,0.208,0.000565,1.23,-0.499,0.0735,0.0482,0.144
CTTAGTG,0.0372,0.0218,-0.643,-0.683,0.00981,-1.24,0.201,0.0352,0.0848,-0.0713
ATATGAT,-0.127,0.0803,0.091,0.862,0.0737,1.54,-0.552,0.167,-0.196,0.103
GCACGTT,-0.0706,-0.0679,-0.17,-1.27,0.0196,-0.206,-0.21,-0.127,-0.187,-0.314
AAGCCGA,-0.0187,0.00903,-0.391,-0.551,-0.0453,-0.845,0.00377,0.0281,-0.0844,-0.0119
AGTAGCT,0.127,-0.0102,-0.284,-0.62,-0.0752,-0.72,-3.07,-0.0825,-0.0235,-0.0235
ATAATGA,-0.0278,-0.0595,0.0446,-0.156,0.0665,-1.04,0.00171,0.0699,-0.0531,0.0273
GAGAACG,-0.0161,-0.0165,-0.602,-0.408,0.0272,-0.802,0.188,-0.0638,-0.0945,-0.0783
GCGAATT,0.0903,0.0521,0.127,0.36,-0.137,1.25,-0.239,-0.0731,0.0853,0.118
GATTGCT,-2.61,-2.14,-0.692,-0.74,0.161,-0.83,-2.91,0.0444,0.227,-0.0273
GAGCCGG,0.0944,0.06,0.363,0.952,0.0513,1.46,0.108,0.248,0.0336,0.0915
AGCCGAG,-0.0119,0.0701,0.376,0.976,-0.0542,0.2,0.104,0.157,0.0618,0.0428
CCGAAAG,-0.00301,-0.028,-0.536,-0.418,0.0939,-0.961,0.17,0.0957,0.0887,-0.215
ACGAGCT,-0.0493,-0.0374,-0.415,-0.634,3.5e-05,-0.858,-0.159,0.0561,-0.0282,-0.0803
ATATCAC,0.00617,0.062,-0.112,-0.43,0.0993,-0.794,0.0989,0.0796,0.0961,0.0872
TTGCAAC,0.037,0.0174,-0.441,-1.16,0.077,-0.978,0.0443,-0.0827,0.0883,-0.00871
AGGCGCT,-0.0402,-0.082,-0.207,-0.405,-0.118,-0.286,-0.139,-0.101,-0.0643,-0.103
ATCGACC,0.114,0.139,0.0481,0.537,0.126,-0.198,0.231,0.0909,0.15,0.129
